In PubChem BioAssay AID624418 (National Center for Advancing Translational Sciences (NCATS), 2012):
The whole screen tested about 410,000 compounds, of which about 530 (0.13%) were called active. Inconclusive means that the source gave no clear call. Such entries were picked first, then a sample of the others. The call rests on the fitted dose curve; in most records, active means well fitted inhibition curve with a large enough effect; inconclusive means small, poorly fitted or top-dose-only effect, or another doubt; inactive means no such curve, though single readings can be large or run the other way. Potencies beside an inconclusive call are fits to weak or partial responses and may not hold up.

Experiment: qHTS of GLP-1 Receptor Inverse Agonists: Cytotox Screen
Conditions: HEK293 cAMP-luciferase reporter cells, luminescence, 24 h; series mostly up to 38.3 µM
Text: The overall goal of this project was to develop a novel assay for discovering small molecule ligands for class B1 G protein-coupled receptors (GPCRs). Very few agonists (or inverse agonists) with generally weak activity for this entire group of physiologically important receptors are known to date. To establish proof-of-principle that this critical bottleneck can be overcome with a suitable screening approach, our studies focused on the class B1 receptor for glucagon-like peptide-1 (GLP-1R), a potential therapeutic target for diabetes and neurodegenerative disease.
The assay was developed using a cell-based functional readout. Toward this goal, stably transfected HEK293 cell clones were established that co-express (i) a cAMP-responsive luciferase reporter gene, and (ii) constitutively active GLP-1R that upon ligand interaction inhibit (inverse agonists) the luciferase activity. In addition, two control cell lines were developed: (i) one that express only the cAMP-responsive reporter gene to enable initial exclusion of GLP-1R independent effects of candidate probes; and (ii) one with the reported gene cloned with another constitutively active orphan receptor GPR119 to enable exclusion of GLP-1R independent inhibitor effects of candidate inverse agonists.
To that end, this assay was optimized for 1536-well format and screened against the MLSMR. Then the same collection was run in this cytotoxicity assay where inhibition was the undesired outcome.
NIH Molecular Libraries Probe Production Network [MLPCN]
NIH Chemical Genomics Center [NCGC]
PI Name: Martin Beinborn, Tufts Medical Center
Six ul of cell suspension (200 cells/uL in DMEM + 10% Nu serum + 1% pen-strep) is dispensed in a white solid 1536-well plate. The plates are incubated for 12 hours at 37 deg C at 5% CO2 followed by addition of 23 nL compounds. After 24 hr incubation at 37 deg C and 5% CO2, 3 uL of luciferase assay detection reagent is added. A luminescence read is obtained on the PerkinElmer Viewlux after 12 min incubation at room temperature.
Potency means the concentration at half of the fitted maximal effect.

With Cc1ccc(C2Nc3ccccc3C(=O)N2Cc2ccco2)cc1 (stereo not drawn) as the compound, how does the Potency read?
Its Potency is inconclusive: 28.2 µM [inhibitor, single point].

With Cn1c(-c2ccccc2)c(C(=O)CCl)c2ccccc21 as the compound, how does the Potency read?
Its Potency is inconclusive: 22.4 µM [inhibitor, single point].

With Oc1nc(Nc2ccccc2)sc1/C=C1\C=Nc2ccccc21 as the compound, how does the Potency read?
The Potency was inconclusive: 28.2 µM [inhibitor, single point].

Which Potency does the source give for COc1ccccc1N1CCN(C(=O)c2oc3ccccc3c2N)CC1 here?
The Potency was inconclusive: 10 µM [inhibitor, single point].

For COc1cc2c(cc1OC)CN(c1nc(CN3CCCC3)nc3sc(C)c(C)c13)CC2, which Potency is on record?
Its Potency is inconclusive: 28.2 µM [inhibitor, single point].

Which Potency does the source give for C(#Cc1ccccc1)C[N+]1(CC#Cc2ccccc2)CCCCC1 here?
Its Potency is inconclusive: 12.6 µM [inhibitor, single point].

With Cc1ccc(C(=O)c2c3ccccc3[n+]([O-])n2CCO)cc1 as the compound, how does the Potency read?
The Potency was inconclusive: 2 µM [inhibitor, partial curve, poor fit].

With CCCc1ccc(OCc2nc(-c3ccc(NC(=O)c4cccs4)cc3)no2)cc1 as the compound, how does the Potency read?
Its Potency is inconclusive: 31.6 µM [inhibitor, single point].

With O=C1N[C@@H](Cc2ccccc2)C(=O)N2[C@@H]3N(S(=O)(=O)c4ccccc4)c4ccccc4[C@]3(Br)C[C@@H]12 as the compound, how does the Potency read?
Its Potency is “inactive”.

For COc1cccc(CC2(CO)CCCN(Cc3nc(-c4cccs4)oc3C)C2)c1 (stereo not drawn), which Potency is on record?
The Potency was inconclusive: 0.447 µM [inhibitor, full curve, poor fit].

Which Potency does the source give for CN1C(=O)/C(=C/c2ccc(O)c([N+](=O)[O-])c2)NC1=S here?
Its Potency is inconclusive: 11.2 µM [inhibitor, partial curve, poor fit].

Which Potency does the source give for CCOC(=O)CN(C(=O)CSc1nnc(C)n1-c1ccccc1)c1ccccc1 here?
Its Potency is “inactive”.

For CCCCNC(=O)C(C)N(CCN(C)C)C(=O)CCCCCN1C(=O)NC(c2ccc(Cl)cc2)C(C(=O)OCc2ccccc2)=C1C (stereo not drawn), which Potency is on record?
Its Potency is inconclusive: 28.2 µM [inhibitor, single point].

With Cn1cc(-c2cc3n(n2)CCC(=O)N3CC(=O)NCc2ccccc2)c2ccccc21 as the compound, how does the Potency read?
Its Potency is “inactive”.

Which Potency does the source give for Cc1cc(=S)[nH]c2c(C)cccc12 here?
The Potency was inconclusive: 12.6 µM [inhibitor, partial curve, poor fit].

With CCOc1cc(/C=N/Nc2ccc(S(=O)(=O)Nc3ccccc3C(=O)O)cc2[N+](=O)[O-])cc(Cl)c1O as the compound, how does the Potency read?
Its Potency is inconclusive: 11.2 µM [inhibitor, partial curve, poor fit].

Which Potency does the source give for O=C(O)c1cc(O)c2c(c1)[C@@H]([C@H]1c3cc(C(=O)O)cc(O)c3C(=O)c3c(O[C@@H]4O[C@H](CO)[C@@H](O)[C@H](O)[C@H]4O)cccc31)c1cccc(OC3O[C@H](CO)[C@@H](O)[C@H](O)[C@H]3O)c1C2=O (stereo partly drawn) here?
Its Potency is inconclusive: 8.91 µM [inhibitor, partial curve, poor fit].

For COc1ccccc1N1CCN(Cc2cc(COC(C)C)c3cccnc3c2O)CC1, which Potency is on record?
The Potency was inconclusive: 12.6 µM [inhibitor, partial curve].

With CCN=C1NN=C(c2ccc(C)cc2)CS1 as the compound, how does the Potency read?
Its Potency is inconclusive: 12.6 µM [inhibitor, partial curve, poor fit].

For CC(=O)c1cccc(NC(=O)c2cc(C(C)C)on2)c1, which Potency is on record?
The Potency was “inactive”.

For CC1=C(C(=O)OCc2ccccc2)C(c2cccnc2)n2nnnc2N1 (stereo not drawn), which Potency is on record?
Its Potency is inconclusive: 31.6 µM [inhibitor, single point].

Which Potency does the source give for CCCc1ccc(C(=O)NNc2cccc(C)c2)cc1 here?
The Potency was inconclusive: 2.24 µM [inhibitor, full curve].

For COc1cccc(OCc2cc(C3Nc4ccccc4C(=O)N3Cc3ccco3)ccc2OC)c1 (stereo not drawn), which Potency is on record?
The Potency was “inactive”.

For CCc1ccccc1NC(=O)CSc1nccn1C, which Potency is on record?
Its Potency is “inactive”.

For Cc1nn(-c2cc(N3CCCCCC3)ccc2[N+](=O)[O-])c(=O)c2ccccc12, which Potency is on record?
The Potency was inconclusive: 11.2 µM [inhibitor, single point].

Which Potency does the source give for Cc1ccc(C(=O)N2C(=O)C(c3ccccc3)Oc3ccccc32)cc1 (stereo not drawn) here?
The Potency was inconclusive: 28.2 µM [inhibitor, single point].

Which Potency does the source give for CN1CCN(c2ncnc3c2[nH]c2ccc(F)cc23)CC1 here?
Its Potency is “inactive”.

For Cc1c(N/N=C(\C#N)C(=O)c2ccc(Cl)cc2)c(=O)n(-c2ccccc2)n1C, which Potency is on record?
Its Potency is inconclusive: 31.6 µM [inhibitor, single point].

With S=C(c1cn(Cc2ccc(Br)cc2)c2ccccc12)N1CCOCC1 as the compound, how does the Potency read?
The Potency was “inactive”.

With O=C(COc1ccc(Cl)cc1Cl)Nc1ccc(C(=O)OC2CCCCC2)cc1 as the compound, how does the Potency read?
Its Potency is “inactive”.

With CCCCC1(Cc2ccc([N+](=O)[O-])cc2)C(=O)N(c2ccccc2)N(c2ccccc2)C1=O as the compound, how does the Potency read?
Its Potency is “inactive”.

With COc1ccc(CN(CCCN2CCOCC2)C(=O)Nc2ccccc2)cc1OC as the compound, how does the Potency read?
Its Potency is inconclusive: 28.2 µM [inhibitor, single point].

For N/C(=N\OC(=O)c1ccccc1Br)c1ccc([N+](=O)[O-])cc1, which Potency is on record?
Its Potency is inconclusive: 6.31 µM [inhibitor, partial curve, poor fit].

With O=C(NC1CCCC1)c1ccc(CS(=O)(=O)Cc2ccccc2Cl)o1 as the compound, how does the Potency read?
The Potency was “inactive”.

For O=C(NC1(O)C(=O)c2ccccc2C1=O)c1ccccc1, which Potency is on record?
Its Potency is inconclusive: 17.8 µM [inhibitor, single point].

Which Potency does the source give for CCOC(=O)c1cnc2c(Cl)cccc2c1NCCCN1CCOCC1 here?
Its Potency is “inactive”.

Which Potency does the source give for COc1ccc(CNC(=O)CCS(=O)(=O)c2ccc3c(c2)CC(C)N3C(=O)C2CC2)cc1 (stereo not drawn) here?
The Potency was inconclusive: 8.91 µM [inhibitor, partial curve].

Which Potency does the source give for COc1cccc2cc(/C(=N/O)c3ccccc3)oc12 here?
The Potency was “inactive”.

Which Potency does the source give for CC(CCc1ccc(O)cc1)NC(c1ccccc1)c1ccc(Cl)cc1 (stereo not drawn) here?
The Potency was inconclusive: 28.2 µM [inhibitor, single point].

Which Potency does the source give for CN(C)CCCN(C(=O)c1ccc(S(=O)(=O)N2CCc3ccccc32)cc1)c1nc2c(Cl)cccc2s1 here?
Its Potency is inconclusive: 22.4 µM [inhibitor, single point].

For COc1ccc(C(=O)C(CCCCC(CN(C)C)C(=O)c2ccc(OC)cc2)CN(C)C)cc1 (stereo not drawn), which Potency is on record?
The Potency was inconclusive: 7.08 µM [inhibitor, partial curve].

For CCOC(=O)NC1(Nc2cccc(Cl)c2)Oc2ccccc2O1, which Potency is on record?
The Potency was inconclusive: 5.01 µM [inhibitor, full curve, poor fit].

Which Potency does the source give for CNC(=S)N/N=C/c1cc(Br)c(OCc2ccncc2)c(OC)c1 here?
The Potency was inconclusive: 14.1 µM [inhibitor, single point].

For CCOc1cc(C(=O)N/N=C/C(Br)=C/c2ccccc2)cc(OCC)c1OCC, which Potency is on record?
The Potency was inconclusive: 0.794 µM [inhibitor, full curve].

Which Potency does the source give for O=C(C=Cc1cccnc1)c1ccccc1 here?
Its Potency is inconclusive: 14.1 µM [inhibitor, partial curve, poor fit].

For Cn1ccc(NC(=O)Nc2ccc(Cl)cc2)n1, which Potency is on record?
The Potency was inconclusive: 2.51 µM [inhibitor, partial curve, poor fit].

For O=C(N/N=C\c1cc([N+](=O)[O-])ccc1N1CCCC1)c1ccccn1, which Potency is on record?
Its Potency is inconclusive: 12.6 µM [inhibitor, partial curve, poor fit].

For COc1ccc(C(=O)NCC(=O)N/N=C/c2cn[nH]c2-c2ccccc2)cc1, which Potency is on record?
The Potency was inconclusive: 12.6 µM [inhibitor, single point].

For Cc1nn(Cc2c(F)c(F)c(F)c(F)c2F)c(C)c1NC(=O)c1ccc(COc2cc(Cl)ccc2Cl)cc1, which Potency is on record?
Its Potency is inconclusive: 8.91 µM [inhibitor, partial curve, poor fit].

For O=[N+]([O-])c1ccc(NN=Cc2ccc(O)cc2O)nc1, which Potency is on record?
Its Potency is inconclusive: 11.2 µM [inhibitor, partial curve, poor fit].

For CN(Cc1ccccc1)C(=O)c1[nH]cnc1C(=O)N[C@@H](Cc1ccccc1)C(=O)OCc1ccccc1, which Potency is on record?
The Potency was inconclusive: 28.2 µM [inhibitor, single point].

Which Potency does the source give for CC(=O)O[C@H]1C2OC(=O)C(C)=C2[C@@H]2OC(=O)[C@]3(CCC4OC41C)OC23 (stereo partly drawn) here?
The Potency was “inactive”.

Which Potency does the source give for Cc1cc(NS(=O)(=O)c2ccc(NC(=O)C(c3ccccc3)c3ccccc3)cc2)no1 here?
The Potency was inconclusive: 28.2 µM [inhibitor, single point].

Which Potency does the source give for CC(C)C(=O)NC(=S)N1CCc2ccccc21 here?
The Potency was inconclusive: 28.2 µM [inhibitor, single point].

For COc1ccc(N(CC(=O)N/N=C/c2ccc(F)cc2)S(=O)(=O)c2ccccc2)cc1, which Potency is on record?
Its Potency is inconclusive: 5.62 µM [inhibitor, partial curve].

For CSc1ccccc1N=CC1=C(O)CC(C)(C)CC1=O, which Potency is on record?
The Potency was inconclusive: 11.2 µM [inhibitor, single point].

Which Potency does the source give for Cc1cccc(Cn2nnc3c(=O)[nH]c(C4CCCN(C(=O)c5ccc(C(C)(C)C)cc5)C4)nc32)c1 (stereo not drawn) here?
The Potency was inconclusive: 28.2 µM [inhibitor, single point].

For CCOc1ccccc1CNC(=O)C1CCN(Cc2cc3ccccc3n2Cc2ccccc2)CC1, which Potency is on record?
Its Potency is “inactive”.

With CCOC(=O)c1nc(C)nc(Sc2n[nH]c(-c3cc(C(F)(F)F)cc(C(F)(F)F)c3)n2)c1C as the compound, how does the Potency read?
The Potency was inconclusive: 22.4 µM [inhibitor, single point].

With C/C(=N\NC(=O)c1ccoc1C)c1ccccc1O as the compound, how does the Potency read?
The Potency was inconclusive: 0.501 µM [inhibitor, full curve, poor fit].

With CCC1CCc2sc(C(=O)NCC(c3ccccc3OC)N3CCCC3)cc2C1 (stereo not drawn) as the compound, how does the Potency read?
The Potency was inconclusive: 11.2 µM [inhibitor, single point].

For C#CCn1c(=NC(=O)CSC(C)=O)sc2cc(F)ccc21, which Potency is on record?
Its Potency is inconclusive: 3.16 µM [inhibitor, full curve].

For COc1cc([N+](=O)[O-])ccc1NC(=S)NNC(=O)c1ccc2c(c1)OCO2, which Potency is on record?
Its Potency is inconclusive: 14.1 µM [inhibitor, partial curve, poor fit].
